Test results as given in the supplement of paper PMC3724861.
The other results are listed elsewhere or left out.

These sequences were tested on T1, Caupolican (Caup) homeodomain DNA-binding domain (assay: PBM E-score (8-mer, recovered from the published 9-mer minima) (E-score (dimensionless, -0.5 to 0.5)); Drosophila protein; higher = stronger relative binding preference, active = 0.31 or more).
T1 sequence: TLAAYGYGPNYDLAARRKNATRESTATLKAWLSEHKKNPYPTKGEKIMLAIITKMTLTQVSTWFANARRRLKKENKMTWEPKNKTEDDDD
Summary of the method: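 Caup's homeodomain DNA-binding domain (residues 214-303) was made by in vitro transcription and translation and applied at 100 nM to custom-designed protein binding microarrays. Each value is an enrichment score that gives relative binding preference for a short DNA word, with higher meaning stronger. The 8-mer values were recovered from published 9-mer scores, each of which was the minimum of its two constituent 8-mer scores. A cutoff of 0.31 marks candidate sites.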
With CTTTCATA the “PBM E-score” value was inactive: 0.0707. CAGGATAC was tested, and the “PBM E-score” value was inactive: 0.023. With AATCATAT the “PBM E-score” value was inactive: 0.152. With TAGGGAAA the “PBM E-score” value was inactive: 0.0138. CTGTGTAA was tested, and the “PBM E-score” value was inactive: 0.294. AGATGAAC was tested, and the “PBM E-score” value was inactive: 0.133. ATGACCAG was tested, and the “PBM E-score” value was inactive: 0.0581. AAAATGTA was tested, and the “PBM E-score” value was inactive: 0.166. In the case of ACGTTCGA, the “PBM E-score” value is reported as inactive: 0.0289. ATAGAGTG was tested, and the “PBM E-score” value was inactive: 0.0385. With CTATATCA the “PBM E-score” value was inactive: 0.0895. AAATTCGG was tested, and the “PBM E-score” value was inactive: 0.0188. For GGTGGACA, the “PBM E-score” value was inactive: 0.0406. With CTTGATTA the “PBM E-score” value was inactive: 0.023. In the case of AGATTGGC, the “PBM E-score” value is reported as inactive: -0.0959. AAGGCCGC was tested, and the “PBM E-score” value was inactive: -0.191. For CAGGCACG, the “PBM E-score” value was inactive: -0.134. With CCCGCTCC the “PBM E-score” value was inactive: -0.343. For AATGTTGC, the “PBM E-score” value was inactive: 0.207. With AAGTTGCG the “PBM E-score” value was inactive: 0.0343. In the case of GGTTGCGA, the “PBM E-score” value is reported as inactive: -0.0238. With CGGGGTTA the “PBM E-score” value was inactive: -0.126. With GGTAGCCA the “PBM E-score” value was inactive: -0.0887. In the case of ACAAGACT, the “PBM E-score” value is reported as inactive: 0.28. CCCAGGGG was tested, and the “PBM E-score” value was inactive: -0.287. With TATCGAGA the “PBM E-score” value was inactive: 0.111. AGAGCAGG was tested, and the “PBM E-score” value was inactive: -0.0146. In the case of ATTCGCCA, the “PBM E-score” value is reported as inactive: -0.061. GCCAAGAC was tested, and the “PBM E-score” value was inactive: -0.0789. CTGACCAC was tested, and the “PBM E-score” value was inactive: -0.0657. With CTTCGAGC the “PBM E-score” value was inactive: -0.169. For AAAATCTC, the “PBM E-score” value was inactive: 0.0777. In the case of CGCCGGGC, the “PBM E-score” value is reported as inactive: -0.289. GGAGGCCC was tested, and the “PBM E-score” value was inactive: -0.306. AAGTCGCT was tested, and the “PBM E-score” value was inactive: -0.0392. For GAGCTTAC, the “PBM E-score” value was inactive: -0.0262. CGTGATGA was tested, and the “PBM E-score” value was inactive: -0.0102. ATGCTAAT was tested, and the “PBM E-score” value was inactive: 0.162. CATTAAAA was tested, and the “PBM E-score” value was inactive: 0.15. GCTAACCA was tested, and the “PBM E-score” value was inactive: 0.00738. For GGATTCAC, the “PBM E-score” value was inactive: -0.0289. With ATTGGCTG the “PBM E-score” value was inactive: -0.0389. For AGGCCTCC, the “PBM E-score” value was inactive: -0.183. With CGGCTCAA the “PBM E-score” value was inactive: -0.133. TATTGTAA was tested, and the “PBM E-score” value was inactive: 0.275. In the case of TCACCTCA, the “PBM E-score” value is reported as inactive: -0.0289. In the case of AACTCAGT, the “PBM E-score” value is reported as inactive: 0.0365. With GCGGATAA the “PBM E-score” value was inactive: -0.0433. With GACCAAAA the “PBM E-score” value was inactive: 0.029. With CCCTGACG the “PBM E-score” value was inactive: -0.165. CACGCGGA was tested, and the “PBM E-score” value was inactive: -0.017. In the case of GAACCATC, the “PBM E-score” value is reported as inactive: -0.0355. ATGTACAC was tested, and the “PBM E-score” value was active: 0.441. In the case of CCCGGGGC, the “PBM E-score” value is reported as inactive: -0.344. For CATATTCC, the “PBM E-score” value was inactive: -0.0636. CAGGTACA was tested, and the “PBM E-score” value was inactive: 0.298. GGGCTCCA was tested, and the “PBM E-score” value was inactive: -0.286. With ATCTATAA the “PBM E-score” value was inactive: 0.0941. For AAAGCATA, the “PBM E-score” value was inactive: 0.105. In the case of AATAGCTA, the “PBM E-score” value is reported as inactive: 0.0749. CCTGTGAA was tested, and the “PBM E-score” value was inactive: -0.0104. GGGGTAGA was tested, and the “PBM E-score” value was inactive: -0.16. In the case of GCTCTTAA, the “PBM E-score” value is reported as inactive: -0.0377. For GATAGTCA, the “PBM E-score” value was inactive: -0.0107. GTATGGAA was tested, and the “PBM E-score” value was inactive: -0.0219. For CCGCCAAA, the “PBM E-score” value was inactive: -0.134. For AACTACAC, the “PBM E-score” value was active: 0.355. CCACCCAG was tested, and the “PBM E-score” value was inactive: -0.0545. With CCGACACC the “PBM E-score” value was inactive: -0.0618. ATGAAATG was tested, and the “PBM E-score” value was inactive: -0.0333. GCGTCTTA was tested, and the “PBM E-score” value was inactive: -0.0591. With GGCTGAAC the “PBM E-score” value was inactive: -0.0987. For GTACGTGA, the “PBM E-score” value was inactive: 0.108. AGGAAGTG was tested, and the “PBM E-score” value was inactive: -0.014. In the case of ATAAGTTG, the “PBM E-score” value is reported as inactive: 0.121. For CTAAAGCC, the “PBM E-score” value was inactive: -0.0837. For ATCAACAA, the “PBM E-score” value was inactive: 0.289. With ACGATGCC the “PBM E-score” value was inactive: -0.137. AACTACCT was tested, and the “PBM E-score” value was inactive: 0.122. ATACGGTG was tested, and the “PBM E-score” value was inactive: 0.0413. With CCGGTAAC the “PBM E-score” value was inactive: -0.0103. For GCGCAACA, the “PBM E-score” value was inactive: 0.0279. In the case of ACGACGTA, the “PBM E-score” value is reported as ≥ 0.128. For GAAAGGTC, the “PBM E-score” value was inactive: -0.0303. GCATGTTA was tested, and the “PBM E-score” value was active: 0.397. With CGTGTTAG the “PBM E-score” value was inactive: 0.285. CTTTGCGA was tested, and the “PBM E-score” value was inactive: -0.0806. In the case of AAGGCCTA, the “PBM E-score” value is reported as inactive: -0.13. ACCCTCTG was tested, and the “PBM E-score” value was inactive: -0.179. ACTTGACG was tested, and the “PBM E-score” value was inactive: 0.0476. In the case of AATTGTGT, the “PBM E-score” value is reported as inactive: 0.202. In the case of GAGAGGCC, the “PBM E-score” value is reported as inactive: -0.194. For GGTTGATA, the “PBM E-score” value was inactive: 0.0981. With AGGACGAG the “PBM E-score” value was inactive: -0.0574. AAAGTGGA was tested, and the “PBM E-score” value was inactive: -0.0524. ACTCATAT was tested, and the “PBM E-score” value was inactive: 0.0842. CATTTACA was tested, and the “PBM E-score” value was inactive: 0.239. With CGCGCTTA the “PBM E-score” value was inactive: -0.0356. CTAGTTTA was tested, and the “PBM E-score” value was inactive: 0.0982. CTGCATAC was tested, and the “PBM E-score” value was inactive: 0.102. For CCGTCCCC, the “PBM E-score” value was inactive: -0.261. ATCTCTAG was tested, and the “PBM E-score” value was inactive: -0.0553. In the case of ATACTTTA, the “PBM E-score” value is reported as inactive: 0.159. With AATGTTCG the “PBM E-score” value was inactive: 0.154. In the case of CCAGGCCA, the “PBM E-score” value is reported as inactive: -0.213. For TAGACAAA, the “PBM E-score” value was inactive: 0.144. With GCGAATAC the “PBM E-score” value was inactive: 0.0418. For AACAATGG, the “PBM E-score” value was inactive: 0.198. In the case of AACTCAAT, the “PBM E-score” value is reported as inactive: 0.0711. For CCCAGCAG, the “PBM E-score” value was inactive: -0.201. For AACTGGCA, the “PBM E-score” value was inactive: -0.139. In the case of CCGCATGC, the “PBM E-score” value is reported as inactive: -0.125. For CGGTACCC, the “PBM E-score” value was inactive: -0.183. In the case of TTCCCCAA, the “PBM E-score” value is reported as inactive: -0.0437. ACTATACT was tested, and the “PBM E-score” value was inactive: 0.114. For CAAGTTAA, the “PBM E-score” value was inactive: 0.137. For ATGGGAAT, the “PBM E-score” value was inactive: 0.0473. In the case of GCATGCCA, the “PBM E-score” value is reported as inactive: -0.0807. With TCGTCCAA the “PBM E-score” value was inactive: -0.0617. CAAAGGCA was tested, and the “PBM E-score” value was ≥ 0.0673. For TATTTTGA, the “PBM E-score” value was inactive: 0.126. With GCCATTTA the “PBM E-score” value was inactive: -0.0224. For CAGCATCA, the “PBM E-score” value was inactive: 0.058. With CTATCATA the “PBM E-score” value was inactive: 0.0368. In the case of AAACGACT, the “PBM E-score” value is reported as inactive: 0.0374. CCCATTTC was tested, and the “PBM E-score” value was inactive: -0.136. In the case of AAATAGCT, the “PBM E-score” value is reported as inactive: -0.0104. With GTGCGCTA the “PBM E-score” value was inactive: -0.0015. With CTGTTCAA the “PBM E-score” value was inactive: 0.0792. For CACGCTTC, the “PBM E-score” value was inactive: -0.0968. CACATACG was tested, and the “PBM E-score” value was inactive: 0.0593. In the case of CGTGTACC, the “PBM E-score” value is reported as active: 0.35. For GGCCATTA, the “PBM E-score” value was inactive: -0.0842. ACGCGATA was tested, and the “PBM E-score” value was ≥ 0.0811. With CAGTTGGC the “PBM E-score” value was inactive: -0.0825. In the case of ATTAGTCA, the “PBM E-score” value is reported as ≥ 0.175. In the case of AAGCAGCA, the “PBM E-score” value is reported as inactive: -0.0143. For ACTATTAA, the “PBM E-score” value was inactive: 0.145. For AGAAATGC, the “PBM E-score” value was inactive: 0.0833. For ATTCTGGA, the “PBM E-score” value was inactive: 0.11. CGAGGAAC was tested, and the “PBM E-score” value was inactive: -0.00281. For AATCGCAG, the “PBM E-score” value was inactive: 0.0242.
